Test results taken from the antibiotic and cytotoxicity screens of Wong et al. (2023).
Some of the results follow.

How the values were obtained:
HSkMC = human skeletal muscle cells; assay: cytotoxicity call (relative viability < 0.9); details: 10 µM
HepG2 = assay: cytotoxicity call (relative viability < 0.9); details: 10 µM
S. aureus RN4220 = assay: growth inhibition call (relative growth <= 0.2); details: 50 µM

Row | SMILES | cytotoxicity call (HSkMC) | cytotoxicity call (HepG2) | growth inhibition call (S. aureus RN4220)
1 | CC(=O)c1ccc(OCc2c(-c3ccccc3)nnn2CC(=O)NS(=O)(=O)Cc2ccccc2)cc1 | inactive | inactive | inactive
2 | CNC(=O)c1ccc(CN)cc1 | inactive | inactive | inactive
3 | COc1ccc(NC(=O)N(C)C[C@H]2Oc3ncc(C#C[C@H](C)O)cc3C(=O)N([C@@H](C)CO)C[C@@H]2C)cc1 | inactive | inactive | inactive
4 | C[C@H]1CN([C@@H](C)CO)C(=O)Cc2cc(NS(=O)(=O)c3cn(C)cn3)ccc2O[C@@H]1CN(C)S(=O)(=O)c1cn(C)cn1 | inactive | inactive | inactive
5 | COc1ccc(S(=O)(=O)N(C)C[C@@H]2OCc3cnnn3CCCC(=O)N([C@H](C)CO)C[C@@H]2C)cc1 | inactive | inactive | inactive
6 | O=C(C[C@@H]1CC[C@@H]2[C@H](COC[C@@H](O)CN2C(=O)Nc2cccc(Cl)c2)O1)NCCCN1CCOCC1 | inactive | inactive | active
7 | C[C@@H]1CN([C@@H](C)CO)C(=O)c2c(c3ccccc3n2C)-c2ccccc2CO[C@H]1CN(C)C(=O)Nc1ccccc1 | inactive | inactive | inactive
8 | COc1ccc(S(=O)(=O)N(C)C[C@H]2Oc3c(NC(=O)c4ccncc4)cccc3C(=O)N([C@@H](C)CO)C[C@H]2C)cc1 | inactive | active | inactive
9 | COc1ccc(OC)c(C(O)CNC(=O)CN)c1.Cl (stereo not given) | inactive | inactive | inactive
10 | COc1ccc(NC(=O)Nc2ccc3c(c2)C(=O)N([C@@H](C)CO)C[C@@H](C)[C@H](CN(C)Cc2ccc4c(c2)OCO4)OCCCC[C@H](C)O3)cc1 | inactive | inactive | inactive
11 | CCCNC(=O)C[C@H]1CC[C@@H]2[C@H](COc3ccc(NC(=O)c4ccc5c(c4)OCO5)cc3C(=O)N2C)O1 | inactive | inactive | inactive
12 | C[C@@H]1CCCCO[C@@H](CN(C)C(=O)NC2CCCCC2)[C@H](C)CN([C@@H](C)CO)C(=O)c2cc(NC(=O)CCCCCC(=O)Nc3ccccc3N)ccc2O1 | inactive | inactive | inactive
13 | Oc1ccc([C@H]2CNCCN2)cc1 | inactive | inactive | inactive
14 | C[C@H]1CN([C@@H](C)CO)C(=O)c2cccc(NC(=O)c3ccc(-c4nccs4)cc3)c2O[C@H]1CN(C)S(=O)(=O)c1ccc(Cl)cc1 | inactive | inactive | inactive
15 | C[C@H](CO)N1C[C@H](C)[C@@H](CN(C)Cc2ccc(C(=O)O)cc2)OCCCC[C@H](C)Oc2ccc(NC(=O)C3CCCCC3)cc2C1=O | inactive | inactive | inactive
16 | C[C@@H]1CCCCO[C@@H](CN(C)C(=O)c2ccncc2)[C@@H](C)CN([C@H](C)CO)C(=O)c2cc(NS(C)(=O)=O)ccc2O1 | inactive | inactive | inactive
17 | C[C@H](CO)N1C[C@H](C)[C@H](CN(C)Cc2ccc(C(=O)O)cc2)OCCCC[C@H](C)Oc2ccc(NS(=O)(=O)c3cccs3)cc2C1=O | inactive | inactive | inactive
18 | C[C@@H]1CCCCO[C@@H](CN(C)C(=O)CCC(F)(F)F)[C@@H](C)CN([C@H](C)CO)C(=O)c2cc(NC(=O)Nc3ccccc3)ccc2O1 | inactive | inactive | inactive
19 | C[C@@H]1CN([C@@H](C)CO)C(=O)c2cc(NC(=O)Nc3ccc(F)cc3)ccc2O[C@@H](C)CCCCO[C@H]1CN(C)C(=O)Cc1ccccc1 | inactive | inactive | inactive
20 | CC(=O)OCC(=O)C1(OC(C)=O)C(C)CC2C3CC(F)C4=CC(=O)C=CC4(C)C3(F)C(O)CC21C (stereo not given) | inactive | inactive | inactive
21 | COCC(=O)N1CC[C@]2(CC1)CN([C@@H](CO)c1c2c2ccc(cc2n1C)OC)C(=O)Cc1ccccc1 | inactive | inactive | inactive
22 | C=CCOC(=O)[C@H]1[C@@H]2C(=O)O[C@@H](c3ccccc3)[C@@H](c3ccccc3)N2[C@@H](c2ccc(OCCOC(=O)[C@@H]3C[C@@H]4C(=O)N[C@@H](Cc5ccccc5)C(=O)N4[C@@H]3c3ccc(O)cc3)cc2)[C@]12C(=O)Nc1ccc(I)cc12 | inactive | inactive | inactive
23 | CCOC(=O)C(CCc1ccccc1)NC(C)C(=O)N(CC(=O)O)C1Cc2ccccc2C1.Cl (stereo not given) | inactive | inactive | inactive
24 | CO[C@@H]1CN(C)C(=O)c2ccc(NC(=O)c3cc(C)on3)cc2OC[C@@H](C)N(S(=O)(=O)c2ccccc2)C[C@H]1C | inactive | inactive | inactive
25 | CC(C)(C)NCC(O)c1ccc(O)c(CO)c1 (stereo not given) | inactive | inactive | inactive
